Assay results reported in patent publication US20210188967A1 (Ablynx, published 2021).

Target: T1, human serum albumin (human, UniProt P02768)
T1 construct: Immobilised by amine coupling at approximately 3200 RU and used to capture the Nanobody constructs; also called HSA
Test: ProteOn SPR, capture on immobilised HSA
Procedure: NANOBODIES® were captured on human serum albumin and the binding of pre- existing antibodies on the captured NANOBODIES® was evaluated using the PROTEON™ XPR36 (Bio-Rad Laboratories, Inc.). PBS/TWEEN®(polyethylene glycol sorbitan monolaurate) (phosphate buffered saline, pH7.4, 0.005% TWEEN®20) was used as running buffer and the experiments were performed at 25° C. The ligand lanes of a PROTEON™ GLC Sensor Chip were activated with EDC/NHS (flow rate 30 μ/min) and HSA was injected at 10 μg/ml in PROTEON™ Acetate buffer pH4.5 (flow rate 100 μ/min) to render immobilization levels of approximately 3200 RU. After immobilization, surfaces were deactivated with ethanolamine HCl (flow rate 30 μ/min). NANOBODIES® were injected for 2 minutes at 45 μ/min over the HSA surface to render a NANOBODY® capture level of approximately 600 RU. The samples containing pre-existing antibodies were centrifuged for 2 minutes at 14,000rpm and supernatant was diluted 1:10 in PBS-TWEEN®20 (0.005%) before being injected for 2 minutes at 45 μ/min followed by a subsequent 400 seconds dissociation step. […] Binding levels of pre-existing antibodies were determined by setting report points at 125 seconds (5 seconds after end of association). Percentage reduction in pre-existing antibody binding was calculated relative to the binding levels at 125 seconds of a reference NANOBODY®. […]

T1 sequence (P02768 25-609 limits assumed): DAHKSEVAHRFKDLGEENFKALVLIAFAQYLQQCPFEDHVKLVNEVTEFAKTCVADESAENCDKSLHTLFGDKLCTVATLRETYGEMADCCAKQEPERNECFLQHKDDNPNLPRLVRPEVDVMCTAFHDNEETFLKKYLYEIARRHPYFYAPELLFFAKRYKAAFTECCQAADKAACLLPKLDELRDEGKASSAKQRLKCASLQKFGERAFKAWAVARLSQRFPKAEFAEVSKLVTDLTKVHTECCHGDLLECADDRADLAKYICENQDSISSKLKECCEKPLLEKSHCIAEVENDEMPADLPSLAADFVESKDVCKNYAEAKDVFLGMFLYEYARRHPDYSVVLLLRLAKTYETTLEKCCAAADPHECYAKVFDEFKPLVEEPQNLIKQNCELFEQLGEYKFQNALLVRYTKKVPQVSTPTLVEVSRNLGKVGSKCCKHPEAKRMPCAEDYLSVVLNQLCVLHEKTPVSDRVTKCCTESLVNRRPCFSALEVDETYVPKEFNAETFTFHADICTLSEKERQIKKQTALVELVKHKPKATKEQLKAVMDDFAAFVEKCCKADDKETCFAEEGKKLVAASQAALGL

Row | binding result | Binder
1 | binds | SEQ ID NO:2 (invention) (VHH, Trivalent polypeptide: two anti-IL-23 Nanobodies and one anti-serum albumin Nanobody joined by 9GS linkers, with a C-terminal alanine; also called anti-IL 23 polypeptide of the invention) DVQLLESGGGVVQPGGSLRLSCAASGRIFSLPASGNIFNLLTIAWYRQAPGKGRELVATINSGSRTYYADSVKGRFTISRDNSKKTVYLQMNSLRPEDTALYYCQTSGSGSPNFWGQGTLVTVSSGGGGSGGGS[not shown - about 120 residues]GGGGSGGGSEVQLLESGGGVVQPGGSLRLSCAASGRTLSSYAMGWFRQAPGKGREFVARISQGGTAIYYADSVKGRFTISRDNSKNTLYLQMNSLRPEDTALYYCAKDPSPYYRGSAYLLSGSYDSWGQGTLVTVSSA
2 | binds | SEQ ID NO:3 (invention) (VHH, Trivalent polypeptide: two anti-IL-23 Nanobodies and one anti-serum albumin Nanobody joined by 9GS linkers, with a C-terminal alanine; also called anti-IL 23 polypeptide of the invention) DVQLLESGGGVVQPGGSLRLSCAASGRIFSLPASGNIFNLLTIAWYRQAPGKGRELVATINSGSRTYYADSVKGRFTISRDNSKKTVYLQMNSLRPEDTALYYCQTSGSGSPNFWGQGTLVKVSSGGGGSGGGSEVQLVESGGGVVQPGNSLRLS[not shown - about 80 residues]SSQGTLVKVSSGGGGSGGGSEVQLLESGGGVVQPGGSLRLSCAASGRTLSSYAMGWFRQAPGKGREFVARISQGGTAIYYADSVKGRFTISRDNSKNTLYLQMNSLRPEDTALYYCAKDPSPYYRGSAYLLSGSYDSWGQGTLVKVSSA
